Some of the results follow.
Assays:
Experiment in all cases: glycan array binding signal (z-score within array); higher = stronger binding
Details in all cases: glycan notation: IUPAC condensed, linker removed
[1] = biological target: Fuc(a1-2)[GalNAc(a1-3)]Gal(b1-4)GlcNAc(b1-3)[Fuc(a1-2)[GalNAc(a1-3)]Gal(b1-4)GlcNAc(b1-6)]GalNAc
Outline: (§1)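 The Consortium for Functional Glycomics database supplied 3228 glycan arrays, of which those lacking an available protein sequence were dropped. The binding signal, a within-array Z-score, was averaged across arrays of the same protein sequence and across linkers. Negative scores can be read as non-binding.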

[2] = biological target: Fuc(a1-2)[GalNAc(a1-3)]Gal(b1-4)GlcNAc(b1-6)GalNAc
Outline: as §1

[3] = biological target: Fuc(a1-2)[GalNAc(a1-3)]Gal(b1-4)[Fuc(a1-3)]GlcNAc
Outline: as §1

[4] = biological target: Fuc(a1-2)[GalNAc(a1-3)]Gal(b1-4)[Fuc(a1-3)]GlcNAc(b1-3)GalNAc
Outline: as §1

[5] = biological target: Fuc(a1-2)[GalNAc(a1-4)]Gal(b1-4)GlcNAc
Outline: as §1

[6] = biological target: Fuc(a1-2)[GalNAc(b1-3)]Gal
Outline: as §1

Fuc(a1-3)GlcNAc = biological target: Fuc(a1-3)GlcNAc
Outline: as §1

[7] = biological target: Fuc(a1-3)[Gal(b1-4)]Glc6S
Outline: as §1

[8] = biological target: Fuc(a1-3)[Gal(b1-4)]GlcNAc
Outline: as §1

[9] = biological target: Fuc(a1-3)[Gal(b1-4)]GlcNAc(b1-2)Man
Outline: as §1

[10] = biological target: Fuc(a1-3)[Gal(b1-4)]GlcNAc(b1-2)Man(a1-3)[Fuc(a1-3)[Gal(b1-4)]GlcNAc(b1-2)Man(a1-6)]Man(b1-4)GlcNAc(b1-4)GlcNAc
Outline: as §1

[11] = biological target: Fuc(a1-3)[Gal(b1-4)]GlcNAc(b1-2)Man(a1-3)[Fuc(a1-3)[Gal(b1-4)]GlcNAc(b1-2)Man(a1-6)]Man(b1-4)GlcNAc(b1-4)[Fuc(a1-6)]GlcNAc
Outline: as §1

[12] = biological target: Fuc(a1-3)[Gal(b1-4)]GlcNAc(b1-2)Man(a1-6)[Gal(b1-4)GlcNAc(b1-2)Man(a1-3)]Man(b1-4)GlcNAc(b1-4)GlcNAc
Outline: as §1

[13] = biological target: Fuc(a1-3)[Gal(b1-4)]GlcNAc(b1-3)Gal(b1-3)[Fuc(a1-4)]GlcNAc
Outline: as §1

[14] = biological target: Fuc(a1-3)[Gal(b1-4)]GlcNAc(b1-3)GalNAc
Outline: as §1

[15] = biological target: Fuc(a1-3)[Gal(b1-4)]GlcNAc(b1-4)Gal(b1-4)[Fuc(a1-3)]GlcNAc
Outline: as §1

[16] = biological target: Fuc(a1-3)[Gal(b1-4)]GlcNAc(b1-4)Gal(b1-4)[Fuc(a1-3)]GlcNAc(b1-4)Gal(b1-4)[Fuc(a1-3)]GlcNAc
Outline: as §1

[17] = biological target: Fuc(a1-3)[Gal(b1-4)]GlcNAc(b1-6)GalNAc
Outline: as §1

[18] = biological target: Fuc(a1-3)[Gal(b1-4)]GlcNAc(b1-6)[Gal(b1-3)GlcNAc(b1-3)]Gal(b1-4)Glc
Outline: as §1

[19] = biological target: Fuc(a1-3)[Gal(b1-4)]GlcNAc6S
Outline: as §1

[20] = biological target: Fuc(a1-3)[Gal3S(b1-4)]Glc
Outline: as §1

[21] = biological target: Fuc(a1-3)[Gal3S(b1-4)]Glc6S
Outline: as §1

[22] = biological target: Fuc(a1-3)[Gal3S(b1-4)]GlcNAc
Outline: as §1

[23] = biological target: Fuc(a1-3)[Gal3S(b1-4)]GlcNAc6S
Outline: as §1

[24] = biological target: Fuc(a1-3)[GalNAc(b1-4)]Gal(b1-4)GlcNAc
Outline: as §1

[25] = biological target: Fuc(a1-3)[GalNAc(b1-4)]GlcNAc
Outline: as §1

[26] = biological target: Fuc(a1-3)[GalNAc(b1-4)]GlcNAc6S
Outline: as §1

Fuc(a1-4)GlcNAc = biological target: Fuc(a1-4)GlcNAc
Outline: as §1

Fuc(b1-3)GlcNAc = biological target: Fuc(b1-3)GlcNAc
Outline: as §1

Gal(a1-2)Gal = biological target: Gal(a1-2)Gal
Outline: as §1

Gal(a1-3)Gal = biological target: Gal(a1-3)Gal
Outline: as §1

Gal(a1-3)Gal(b1-3)Glc = biological target: Gal(a1-3)Gal(b1-3)Glc
Outline: as §1

Gal(a1-3)Gal(b1-3)GlcNAc = biological target: Gal(a1-3)Gal(b1-3)GlcNAc
Outline: as §1

[27] = biological target: Gal(a1-3)Gal(b1-3)GlcNAc(b1-2)Man
Outline: as §1

[28] = biological target: Gal(a1-3)Gal(b1-3)GlcNAc(b1-2)Man(a1-3)[Gal(a1-3)Gal(b1-3)GlcNAc(b1-2)Man(a1-6)]Man(b1-4)GlcNAc(b1-4)GlcNAc
Outline: as §1

[29] = biological target: Gal(a1-3)Gal(b1-3)GlcNAc(b1-3)GalNAc
Outline: as §1

[30] = biological target: Gal(a1-3)Gal(b1-3)GlcNAc(b1-6)GalNAc
Outline: as §1

[31] = biological target: Gal(a1-3)Gal(b1-3)[Fuc(a1-4)]GlcNAc(b1-2)Man(a1-3)[Gal(a1-3)Gal(b1-3)[Fuc(a1-4)]GlcNAc(b1-2)Man(a1-6)]Man(b1-4)GlcNAc(b1-4)GlcNAc
Outline: as §1

Gal(a1-3)Gal(b1-4)Glc = biological target: Gal(a1-3)Gal(b1-4)Glc
Outline: as §1

Gal(a1-3)Gal(b1-4)GlcNAc = biological target: Gal(a1-3)Gal(b1-4)GlcNAc
Outline: as §1

[32] = biological target: Gal(a1-3)Gal(b1-4)GlcNAc(b1-2)Man
Outline: as §1

[33] = biological target: Gal(a1-3)Gal(b1-4)GlcNAc(b1-2)Man(a1-3)[Gal(a1-3)Gal(b1-4)GlcNAc(b1-2)Man(a1-6)]Man(b1-4)GlcNAc(b1-4)GlcNAc
Outline: as §1

[34] = biological target: Gal(a1-3)Gal(b1-4)GlcNAc(b1-3)GalNAc
Outline: as §1

[35] = biological target: Gal(a1-3)Gal(b1-4)GlcNAc(b1-6)GalNAc
Outline: as §1

[36] = biological target: Gal(a1-3)Gal(b1-4)[Fuc(a1-3)]GalNAc
Outline: as §1

B1: Gal 2 (Homo sapiens), P05162 (protein)
chain: MTGELEVKNMDMKPGSTLKITGSIADGTDGFVINLGQGTDKLNLHFNPRFSESTIVCNSLDGSNWGQEQREDHLCFSPGSEVKFTVTFESDKFKVKLPDGHELTFPNRLGHSHLSYLSVRGGFNMSSFKLKE
glycan array binding signal (z-score) [1]: 1.35 | glycan array binding signal (z-score) [2]: -0.043 | glycan array binding signal (z-score) [3]: -0.192 | glycan array binding signal (z-score) [4]: -0.08 | glycan array binding signal (z-score) [5]: -0.27 | glycan array binding signal (z-score) [6]: -0.239 | glycan array binding signal (z-score) (Fuc(a1-3)GlcNAc): -0.254 | glycan array binding signal (z-score) [7]: -0.184 | glycan array binding signal (z-score) [8]: -0.043 | glycan array binding signal (z-score) [9]: -0.305 | glycan array binding signal (z-score) [10]: -0.229 | glycan array binding signal (z-score) [11]: -0.182 | glycan array binding signal (z-score) [12]: -0.223 | glycan array binding signal (z-score) [13]: -0.205 | glycan array binding signal (z-score) [14]: -0.294 | glycan array binding signal (z-score) [15]: -0.253 | glycan array binding signal (z-score) [16]: -0.279 | glycan array binding signal (z-score) [17]: -0.025 | glycan array binding signal (z-score) [18]: -0.256 | glycan array binding signal (z-score) [19]: -0.2 | glycan array binding signal (z-score) [20]: -0.187 | glycan array binding signal (z-score) [21]: -0.198 | glycan array binding signal (z-score) [22]: -0.185 | glycan array binding signal (z-score) [23]: -0.204 | glycan array binding signal (z-score) [24]: -0.166 | glycan array binding signal (z-score) [25]: -0.226 | glycan array binding signal (z-score) [26]: -0.198 | glycan array binding signal (z-score) (Fuc(a1-4)GlcNAc): -0.261 | glycan array binding signal (z-score) (Fuc(b1-3)GlcNAc): -0.269 | glycan array binding signal (z-score) (Gal(a1-2)Gal): -0.275 | glycan array binding signal (z-score) (Gal(a1-3)Gal): -0.286 | glycan array binding signal (z-score) (Gal(a1-3)Gal(b1-3)Glc): 0.618 | glycan array binding signal (z-score) (Gal(a1-3)Gal(b1-3)GlcNAc): 1.12 | glycan array binding signal (z-score) [27]: -0.221 | glycan array binding signal (z-score) [28]: -0.222 | glycan array binding signal (z-score) [29]: -0.228 | glycan array binding signal (z-score) [30]: -0.05 | glycan array binding signal (z-score) [31]: -0.037 | glycan array binding signal (z-score) (Gal(a1-3)Gal(b1-4)Glc): -0.188 | glycan array binding signal (z-score) (Gal(a1-3)Gal(b1-4)GlcNAc): 0.355 | glycan array binding signal (z-score) [32]: -0.1 | glycan array binding signal (z-score) [33]: 0.518 | glycan array binding signal (z-score) [34]: -0.086 | glycan array binding signal (z-score) [35]: -0.164 | glycan array binding signal (z-score) [36]: -0.524
